Test results as given in the BET-seq Pho4 binding data (Le et al. 2018).
Some of the results follow. Values were computed here from the reads of four pooled replicates and scatter widely.

target: T1, Pho4 (S. cerevisiae) (UniProt P07270); experiment: relative binding free energy (BET-seq); higher = weaker binding; details: reference: library average
T1 sequence: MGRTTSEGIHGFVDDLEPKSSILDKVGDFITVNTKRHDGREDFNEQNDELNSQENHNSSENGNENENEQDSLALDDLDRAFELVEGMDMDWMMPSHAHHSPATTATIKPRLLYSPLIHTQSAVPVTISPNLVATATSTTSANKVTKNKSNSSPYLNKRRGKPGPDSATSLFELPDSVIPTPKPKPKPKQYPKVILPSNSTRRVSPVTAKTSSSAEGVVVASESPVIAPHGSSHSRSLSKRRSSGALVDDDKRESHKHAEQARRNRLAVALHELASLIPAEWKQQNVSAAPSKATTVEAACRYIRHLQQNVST

| Sequence | relative binding free energy |
| --- | --- |
| TTGAGCACGTGCGCTT | -0.12 kcal/mol |
| GTATGCACGTGGCTAT | -0.09 kcal/mol |
| ATAAGCACGTGACGTT | 0.12 kcal/mol |
| GTGAGCACGTGATTTA | 0.22 kcal/mol |
| AAATTCACGTGGTTGA | 0.15 kcal/mol |
| TGTTGCACGTGGACGC | 0.06 kcal/mol |
| AGTCTCACGTGGGTTA | 0.02 kcal/mol |
| AGGATCACGTGGTTAT | 0.06 kcal/mol |
| CATTGCACGTGTGGGA | 0.02 kcal/mol |
| AGCTTCACGTGGGTGC | 0.13 kcal/mol |
| GGTGTCACGTGTTGCG | 0.1 kcal/mol |
| TGTTCCACGTGTGCAT | 0.11 kcal/mol |
| TGATACACGTGTCGTT | 0.03 kcal/mol |
| AGTCCCACGTGGTGGT | -0.11 kcal/mol |
| AAAAGCACGTGGGGCG | -0.24 kcal/mol |
| TGAGGCACGTGGGTCT | -0.2 kcal/mol |
| AAAGGCACGTGAGTGA | 0.17 kcal/mol |
| GGTGTCACGTGCGTGA | 0.03 kcal/mol |
| ATGGGCACGTGGTTTT | -0.14 kcal/mol |
| TTTTGCACGTGCTTAG | -0.07 kcal/mol |
| AGTGCCACGTGGCGGA | -0.18 kcal/mol |
| GAGAGCACGTGTTTAT | -0.03 kcal/mol |
| TGTGTCACGTGTGTGA | 0.09 kcal/mol |

| Sequence | relative binding free energy |
| --- | --- |
| GAAATCACGTGTTTGG | 0.09 kcal/mol |
| TTGTTCACGTGGTGAC | 0.35 kcal/mol |
| AAGTGCACGTGTAAGA | -0.01 kcal/mol |
| CGTTGCACGTGCTATG | 0.06 kcal/mol |
| TGAGGCACGTGCAAGT | -0.14 kcal/mol |
| TGTATCACGTGGGTCA | 0.05 kcal/mol |
| TGTATCACGTGACGGA | 0.26 kcal/mol |
| GAGTTCACGTGGTGAA | 0.2 kcal/mol |
| AGTTGCACGTGGCTGC | -0.08 kcal/mol |
| CGTGTCACGTGGGGCC | -0.1 kcal/mol |
| TAATGCACGTGGGATG | -0.04 kcal/mol |
| GGTTGCACGTGGGCGA | -0.18 kcal/mol |
| ATGCACACGTGAGGTT | 0.27 kcal/mol |
| CAGTGCACGTGTTGTG | -0.04 kcal/mol |
| TTTTACACGTGACGTA | 0.37 kcal/mol |
| TGGGGCACGTGATAAA | 0.1 kcal/mol |
| ATTGTCACGTGAGTAG | 0.28 kcal/mol |
| CAAGGCACGTGTGGAG | -0.14 kcal/mol |
| GGAGGCACGTGGGCTG | -0.31 kcal/mol |
| ATTGTCACGTGTTGGA | 0 kcal/mol |
| TTATTCACGTGTTAAG | 0.23 kcal/mol |
| TCTAACACGTGGTTGT | -0.01 kcal/mol |
| TGCAACACGTGGGTGG | -0.28 kcal/mol |

| Sequence | relative binding free energy |
| --- | --- |
| ATAGACACGTGTGTTT | 0.13 kcal/mol |
| TTTGTCACGTGCAGAT | 0.12 kcal/mol |
| GGGCGCACGTGGGGAC | -0.08 kcal/mol |
| AAATGCACGTGGTGAA | -0.08 kcal/mol |
| AGGTTCACGTGGGCAG | 0.15 kcal/mol |
| GGGTTCACGTGGCAGA | 0.24 kcal/mol |
| ATGAACACGTGTTTGA | -0.04 kcal/mol |
| GGAGTCACGTGGAGAT | 0.15 kcal/mol |
| GTTGTCACGTGCGGCG | 0.18 kcal/mol |
| AGTGACACGTGGGATG | -0.11 kcal/mol |
| GGTGACACGTGTGCGC | 0.16 kcal/mol |
| GTGAACACGTGTTGAG | -0.02 kcal/mol |
| TATTGCACGTGTAGTA | -0.01 kcal/mol |
| GCATTCACGTGTGGGT | 0.33 kcal/mol |
| GTTTTCACGTGTATGT | 0.26 kcal/mol |
| TGTTACACGTGGTAAG | 0.05 kcal/mol |
| CTTTACACGTGTAATG | 0.2 kcal/mol |
| TTTATCACGTGTAGCT | 0.13 kcal/mol |
| ATTATCACGTGGTACA | 0.1 kcal/mol |
| TGTCGCACGTGCGTGT | -0.11 kcal/mol |
| TATGTCACGTGGTGCT | -0.01 kcal/mol |
| TTCTGCACGTGATCGG | 0.06 kcal/mol |
| GATCGCACGTGGTGGA | -0.2 kcal/mol |

| Sequence | relative binding free energy |
| --- | --- |
| TGTGACACGTGCGCTG | -0.1 kcal/mol |
| AGTTACACGTGTGTGC | 0.1 kcal/mol |
| AGGGGCACGTGCCGTG | -0.04 kcal/mol |
| TTTTGCACGTGCTCGT | -0.15 kcal/mol |
| AGGAGCACGTGTGTAA | -0.11 kcal/mol |
| TGTGGCACGTGTACAG | -0.07 kcal/mol |
| GGGGGCACGTGAATTG | 0.3 kcal/mol |
| GAGTCCACGTGTGGGT | 0.24 kcal/mol |
| CTAATCACGTGGTTGT | -0.01 kcal/mol |
| CTTTGCACGTGCGTGT | -0.13 kcal/mol |
| TGATGCACGTGGGGGG | -0.16 kcal/mol |
| TTGAGCACGTGTGTAT | -0.03 kcal/mol |
| AAGGGCACGTGGTCGG | -0.2 kcal/mol |
| ATCATCACGTGGTAGT | 0.22 kcal/mol |
| TGGCGCACGTGATTCG | 0.21 kcal/mol |
| AGAGTCACGTGCGGGC | 0.08 kcal/mol |
| AGTGACACGTGAATGA | 0.18 kcal/mol |
| GAACGCACGTGGCGGG | -0.12 kcal/mol |
| AGCTGCACGTGTGGGT | -0.02 kcal/mol |
| TATGCCACGTGAGGTA | 0.18 kcal/mol |
| ATGATCACGTGGGTTC | 0.08 kcal/mol |
| AGGTTCACGTGGGGCT | 0.17 kcal/mol |
| AGGGCCACGTGCGGGG | -0.16 kcal/mol |

| Sequence | relative binding free energy |
| --- | --- |
| CTAGTCACGTGGTATT | 0.08 kcal/mol |
| AGAAGCACGTGACGGG | 0.06 kcal/mol |
| TAGATCACGTGATTTT | 0.14 kcal/mol |
| GGTCGCACGTGGTAGC | -0.04 kcal/mol |
| GTGTTCACGTGTAGGC | 0.22 kcal/mol |
| GGGAGCACGTGCGTAG | -0.07 kcal/mol |
| CGGGGCACGTGTAGGT | -0.11 kcal/mol |
| TGACTCACGTGTAGTA | 0.16 kcal/mol |
| TTGACCACGTGGAGTG | -0.21 kcal/mol |
| TTTATCACGTGTATGA | 0.01 kcal/mol |
| TTGGCCACGTGGTGGG | -0.05 kcal/mol |
| TATTTCACGTGGAAAT | 0.28 kcal/mol |
| TCTGGCACGTGATGGC | 0.04 kcal/mol |
| ATCAGCACGTGGTGGC | -0.1 kcal/mol |
| GTTTCCACGTGTTGGT | 0.19 kcal/mol |
| GGACTCACGTGGCTGT | 0.24 kcal/mol |
| GAGCGCACGTGGATGG | -0.13 kcal/mol |
| GTTGTCACGTGTTCGG | 0.22 kcal/mol |
| TGGTTCACGTGCATGG | 0.35 kcal/mol |
| GTGGGCACGTGCTTTG | -0.02 kcal/mol |
| TTGAGCACGTGGGTTA | -0.22 kcal/mol |
| GCTGTCACGTGGTGCG | -0.02 kcal/mol |
| AGTGTCACGTGGGAGA | -0.06 kcal/mol |
